Assay results taken from the supplement of paper PMC11383711.
The list shows a part of the results. Binding of human antibodies (heavy:light variable regions, tested as scFv in one mRNA-display pool) to influenza hemagglutinin, with or without the stem antibody CR9114 bound first. Score = (mean enrichment − median) / interquartile range of that screen; higher = more enriched, 0 = typical non-binder. Active = above the paper's cut-off per screen: stems 28; unblocked H1 Solomon Islands 5, H1 Michigan 3, H3 5, H5 19, H7 2.85, both B 5; blocked 9, 7, H5 10, H7 10, B Phuket 10, B Lee 11.5. Scores are scaled within each screen and are no affinities; replicates correlate at about 0.6 to 0.9, and antibodies rare in the pool are noisier.

B1: 037-10-5E04 (protein)
chain 1: QVQLQESGPGLVKPSETLSLTCTVSGTSITTHYWSWIRQTPGKGLEWIGHISSDGTTNFNPSLKSRVTISMDTSKNQFSLNLSSVTAADTAVYYCARDFRERLGHRWEQAFDFWGQGSLVTVSS
chain 2: DIQMTQSPSSLSASVGDRVTITCRASQSISSSLNWYRQEPGKAPKFLIYIASNLQSGVPSRFSGSGSGTDFTLTISSLQPEDFATYYCQQSYSTPWTFGQGTKVEIK
B2: AG8-2D02 (protein)
chain 1: VQLVQSGAEVKKPGASVRLSCKASGFRFTNYYFNWVRQAPGQGLEWMGIINPSGGATTYAQKFQGRVTMTRDTSTSTVYMELGSLRSEDTAVYYCARMATLTASYFYSYGMDVWGQGTTVTVSS
chain 2: EIVLTQSPGTLSLSPGERVTLSCRASQSVSSSYVAWYQQKPGQAPRLLIYAASTRATGIPDRFSGSGSGTDFTLTISRLEPEDFAVYYCQQYGTSPALTFGGGTKVEIK
B3: C3-2-3F02 (protein)
chain 1: VQLVESGGGVVRPGGSLRLSCEASGFTFRVYDMHWVRQAPGKGLEWVAFIRRDGSNEYVIDSVKGRFTISRDNSKNTVYLRMNSLRPEDTALYYCAKLPQRLDEGDYYFDMEVWGQGTTVTVSS
chain 2: DIQMTQSPASLSAAVGDRVTITCRASQGVGNDLGWYQQKPGKAPKRLIYAASSLEDGVPSRFSGSGSGTDFTLTISSLQPEDFATYYCLQHSTYPLTFGGGTKVEIK
B4: 01.g.01 (protein)
chain 1: EVQLVESGGGLVKPGGSLRLSCAASGFTFSSYSMNWVRQAPGKGLEWVSSISSNSYFIYYADSVKGRFTISRDNAKNSLSLQMNSLRAEDTAIYYCARDAGSTGYDYYFDYWGQGTLVTVSS
chain 2: EIVMTQSPATLSVSPGERATLSCRASQSVSSNLAWYQQKPGQAPRLLIYGASTRATGIPARFSGSGSGTEFTLTISSLQSEDFAVYYCQHYNNWPPWTFGQGTKVEIK
B5: R95-1G10 (protein)
chain 1: EVQLVESGGGSVQPGGSLRLSCAASGFSFSNYWMHWVRQAPGKGLVWVSRVISDGTITSYVDSVEGRFTISRDNAENTLYLQMDSLRAEDTAVYYCARGYSTSSGIWYFDLWGRGTLVTVSS
chain 2: SYELTQPPSVSVAPGQTARVTCGGDNIGSKSVHWYQQKSGQAPVLVVYDDSDRPSGIPERFSGSNSGNTATLTISRVEAGDEADYYCQVWDSSTDHWVFGGGTKLTVL
B6: 220-14-IgG-1E01 (protein)
chain 1: EVQLVESGGGLVQPGGSLRLSCAASGFTSSSYEMNWVRQAPGKGLEWISFISKSESIISYADSVKGRFTISRDSAKNSLYLQLTSLRAEDTAVYYCARLGLLGFGELGPPHWYYAMDVWGQGTTVTVSS
chain 2: EIVLTQSPGTLSLSPGERATLSCRASQSVSSTYLVWYRQRPGQAPRLLIYGASKRATGIPDRISGSGSGTDFTLTISRLEPEDFAVYYCQVYGSSPLFAFGPGTK
B7: C1-2-C06 (protein)
chain 1: VQLLESGGGLVQPGGSLRLSCVASGFSFSKYGMSWVRQVPGKGLEGVASVSVGGGYSHYSDYVAGRFVISKEVSSNTLHLQMSRLRAEDTAVYYCVKNRGWQLGPDAFDSWGQGTMVTVSS
chain 2: AIQLTQSPSSLSASLGDRVVITCRASQGVNRDLAWYQQKPGEVPSLLMSSVSLMKSGVPSRFSGSGSGTDFTLTINGLQSEDFAIYYCQQFNSYPITFGQGTRLEIK
B8: 220-14-IgG-1A03 (protein)
chain 1: EVQLVESGGGLVQPGGSLRLSCAASGFTFSNYWMNWVRQGPGKGLVWVARINSDGSRTIYADSVKGRFTISRDNPKNTLYLEMNSLRAEDTAVYFCAREPYFPLYFDYWGQGALVTVSS
chain 2: DIVMTQSPLSLPVTPGEPASISCRSSQSLLHRNEDNYLNWYLQKPGQSPQILIYFGSNRASGVPDRFSGSGSGTDFTLKISRVEAEDVGVYYCMQALQTPFTFGQGTKVEIK
B9: K77-1C04 (protein)
chain 1: QVQLQESGPGLVKPSETLSLTCTVSGGSISSSRYYWGWIRQPPGKGLECIGTIYYTGNTYYNPSLKSRVTISVDTSKNQFSLKLRSVTAADTAVYYCAREGQWLDPNYFDYWGQGALVTVSS
chain 2: DIVMTQSPDSLAVSLGERATINCKSSQSVLFRSNNKNCVAWYQQKPGQPPKLLIYWASTRESGVPDRFSGSGSGTDFTLTINSLQAEDVAVYYCQQYYSTPQTFGQGTKVEIK
B10: R95-1B02 (protein)
chain 1: QVHLQESGPGLVKPSETLSLTCSVSAGSLTSHFWSWIRQPPGKGLEWIGYIHHSGTTGYNPSLKSRVTISVDTSKNQFSLHLTSVTAADTAVYYCARDGSSTSWYFDFWGRGTLVTVSS
chain 2: QSALTQPRSVSGSPGQSVTISCTGTASDVGAYDFVSWYRQHPGKAPKLIIYDVSQRPSGVPDRFSGSKSGNTASLTISGLQADDEGDYHCCSYTGTDTSGVFGGGTKLTVL
B11: antibody 2G04 (protein)
chain 1: VQLVESGGGLVQPGRSLRLSCAASGFTFDDYAMHWVRQAPGKGLEWVSGINWNSGVVGYADSVKGRFTISRDNAKNSLYLQMTSLRAEDTALYYCAKDMHLSAMDILRDAFNMWGQGTMVTVSS
chain 2: DIQMTQSPSTLSASLRDRVTITCRASQSISRWLAWYQQKPGKAPKLLIYAASTLESGVPPRFSGSGSGTEFTLTISSLQPDDFATYYCQQYNSDVTFGQGTRLEIK
B12: AG13-3G01 (protein)
chain 1: VQLVQSGPEVKKPGASVKVSCKASGYTFTSNHIHWLRQAPGQGIEWMGWINPDTGDTEYSRKFQGRVTMTRDTSMTSAYMDLNWLGSADTGVYYCARDRENRLDIVTVPPDNWFDSWGQGTLVTVSS
chain 2: EIVMTQSPATLSASPGGRVTLSCRASQSVSNNLVWYQQKPGQAPRLLIYDASTRATGVPGRFSGSGSGTEFTLTISSLQSEDFAIYYCQQYQNWPTFGQGTKVEIK
B13: W85-3D10 (protein)
chain 1: EVQLVESGGGLVQPGGSLRLSCAASGLSVSGNYISWVRQAPGKGLEWVSVMYAGGRKYYADSVKGRFSISRDQSKNTVYLQMDSLRVEDTAVYYCAGTYLEWLDYWGQGTLVAVSS
chain 2: DIQMTQSPSSLSASVGDRVTITCRASQSISTYLNWYQQRPGRAPKLLIYAASTLQSGVPSRFSGSGSGTDFTLTITGLQPADFATYYCQQTYSSLITFGPGTRVDLK

Target: Influenza A H1N1 A/Michigan/45/2015 hemagglutinin ectodomain
Test: mRNA display binding score; higher = more enriched on the antigen
Details: antigen blocked with: 2 µM CR9114 IgG
Description: (§1)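 A pool of natively paired antibodies, displayed as scFv on mRNA, was selected once on antigen-coated beads and sequenced before and after; two replicates.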

Binder	mRNA display binding score
B1	active: 50.8
B2	inactive: 0.5
B3	inactive: -0.165
B4	inactive: -0.397
B5	inactive: -0.115
B6	inactive: 0.859
B7	inactive: 0.282
B8	active: 8.07
B9	inactive: 0.399
B10	inactive: -0.342
B11	inactive: 0.322
B12	inactive: 4.59
B13	inactive: 0.129

Same assay, conditions: antigen blocked with: nothing

Binder	mRNA display binding score
B1	active: 5.69
B2	inactive: 1.45
B3	inactive: -0.561
B4	inactive: -0.628
B5	inactive: -0.125
B6	inactive: 1.7
B7	inactive: -0.504
B8	inactive: 1.51
B9	inactive: 0.397
B10	inactive: 0.894
B11	inactive: 1.23
B12	inactive: -0.087
B13	inactive: -0.408

Target: Influenza A H1N1 A/Solomon Islands/3/2006 hemagglutinin ectodomain
Test: as above
Details: antigen blocked with: 2 µM CR9114 IgG
Description: as §1

Binder	mRNA display binding score
B1	inactive: 0.655
B2	inactive: 0.654
B3	inactive: -0.442
B4	inactive: -0.667
B5	inactive: -0.469
B6	inactive: 1.28
B7	active: 48.3
B8	active: 215
B9	inactive: -0.0981
B10	inactive: -0.253
B11	inactive: 0.706
B12	inactive: 0.983
B13	inactive: -0.276

Same assay, conditions: antigen blocked with: nothing

Binder	mRNA display binding score
B1	inactive: -0.13
B2	inactive: 0.631
B3	inactive: -0.494
B4	inactive: -0.646
B5	inactive: -0.374
B6	inactive: 1.38
B7	active: 47.6
B8	active: 288
B9	inactive: 0.237
B10	inactive: 1.21
B11	inactive: 0.561
B12	inactive: -0.0491
B13	inactive: -0.0914

Target: Influenza A H3N2 A/Singapore/INFIMH-16-0019/2016 hemagglutinin ectodomain
Test: as above
Details: antigen blocked with: nothing
Description: as §1

Binder	mRNA display binding score
B1	active: 102
B2	inactive: 0.647
B3	inactive: -0.404
B4	inactive: -0.494
B5	inactive: 0.101
B6	inactive: 1.75
B7	inactive: -0.135
B8	inactive: 0.394
B9	inactive: 1.12
B10	inactive: 1.12
B11	inactive: 0.809
B12	inactive: -0.186
B13	inactive: 0.372

Target: Influenza A H5N1 A/Qinghai/1A/2005 hemagglutinin ectodomain
Test: as above
Details: antigen blocked with: 2 µM CR9114 IgG
Description: as §1

Binder	mRNA display binding score
B1	inactive: -0.388
B2	inactive: 0.927
B3	inactive: -0.524
B4	inactive: -0.781
B5	inactive: 1.22
B6	inactive: 0.452
B7	inactive: 0.00872
B8	inactive: 2.69
B9	inactive: 0.254
B10	inactive: 0.166
B11	inactive: 0.888
B12	active: 153
B13	inactive: -0.456

Same assay, conditions: antigen blocked with: nothing

Binder	mRNA display binding score
B1	inactive: -0.0836
B2	inactive: 0.797
B3	inactive: -0.443
B4	inactive: -0.473
B5	inactive: 1.83
B6	inactive: 0.636
B7	inactive: 0.369
B8	inactive: 1.56
B9	inactive: 0.169
B10	inactive: 0.86
B11	inactive: 0.493
B12	active: 74
B13	inactive: -0.355

Target: Influenza A H7N9 A/Shanghai/2/2013 hemagglutinin ectodomain
Test: as above
Details: antigen blocked with: 2 µM CR9114 IgG
Description: as §1

Binder	mRNA display binding score
B1	active: 15.7
B2	inactive: 0.453
B3	inactive: -0.208
B4	inactive: -0.525
B5	inactive: -0.131
B6	inactive: 0.504
B7	inactive: -0.148
B8	inactive: 3.6
B9	inactive: 0.012
B10	inactive: 0.366
B11	inactive: 0.177
B12	inactive: 8.11
B13	inactive: -0.989

Same assay, conditions: antigen blocked with: nothing

Binder	mRNA display binding score
B1	inactive: 0.784
B2	inactive: 1.82
B3	inactive: -0.522
B4	inactive: -0.623
B5	inactive: -0.0595
B6	inactive: 1.94
B7	inactive: -0.184
B8	inactive: 0.734
B9	inactive: 0.527
B10	inactive: 0.998
B11	inactive: 1.84
B12	inactive: 0.00801
B13	inactive: -0.527

Target: Influenza B/Lee/1940 hemagglutinin ectodomain
Test: as above
Details: antigen blocked with: 2 µM CR9114 IgG
Description: as §1

Binder	mRNA display binding score
B1	inactive: -0.822
B2	inactive: -0.238
B3	inactive: 0.631
B4	inactive: -0.439
B5	inactive: 2.93
B6	inactive: -1.23
B7	inactive: -0.401
B8	inactive: -0.541
B9	inactive: -0.134
B10	inactive: -0.434
B11	inactive: 0.179
B12	inactive: 2.56
B13	inactive: 1.03

Same assay, conditions: antigen blocked with: nothing

Binder	mRNA display binding score
B1	inactive: 0.0381
B2	inactive: 0.133
B3	inactive: -0.373
B4	inactive: -0.271
B5	active: 25.4
B6	inactive: -0.04
B7	inactive: 0.0124
B8	inactive: 0.263
B9	inactive: -0.0885
B10	inactive: 0.0571
B11	inactive: 1.38
B12	inactive: 2.62
B13	inactive: 4.52

Target: Influenza B/Phuket/3073/2013 hemagglutinin ectodomain
Test: as above
Details: antigen blocked with: 2 µM CR9114 IgG
Description: as §1

Binder	mRNA display binding score
B1	inactive: 0.341
B2	inactive: 0.317
B3	inactive: -0.273
B4	inactive: -0.482
B5	inactive: 4.41
B6	inactive: 1.12
B7	inactive: 0.509
B8	inactive: 2.36
B9	inactive: 0.135
B10	inactive: -0.26
B11	inactive: 0.512
B12	active: 272
B13	inactive: -0.646

Same assay, conditions: antigen blocked with: nothing

Binder	mRNA display binding score
B1	inactive: -0.116
B2	inactive: 0.193
B3	inactive: -0.358
B4	inactive: -0.275
B5	active: 10.9
B6	inactive: 0.328
B7	inactive: 0.773
B8	inactive: 2.18
B9	inactive: 0.0626
B10	inactive: -0.037
B11	inactive: 0.316
B12	active: 119
B13	inactive: -0.297
